By MIC is commonly meant the least concentration at which growth counts as inhibited. Low values mean greater potency, high ones weaker potency.

This note sets out measurements from patent US9839648B2, “Combined anti-acid-fast bacterial agent, screening method for anti-acid-fast bacterial agents, and activity inhibitor of WecA or ortholog thereof” (MICROBIAL CHEMISTRY RESEARCH FOUNDATION, priority 2013, dated 2017).

For the assay, the system named is B. subtilis CPZEN-45-resistant strain (tagO T728G, Ile243Ser).

≈ marks a conversion by molar mass, not a printed value. Where two headings read alike, the source gives them in different places.

For the compound `CCCCc1ccc(NC(=O)C2=CCN(C)[C@@H]([C@H](O[C@@H]3O[C@H](CN)C(O)C3O)[C@H]3O[C@@H](n4ccc(=O)[nH]c4=O)C(O)C3O)C(=O)N2C)cc1` (stereo partly drawn) [CPZEN-45], the MIC (Bacillus subtilis, 16 h) is > 128 µg/mL.

Turning to `CN[C@H](CC(C)C)C(=O)N[C@H]1C(=O)N[C@@H](CC(N)=O)C(=O)N[C@H]2C(=O)N[C@H]3C(=O)N[C@H](C(=O)N[C@H](C(=O)O)c4cc(O)cc(O)c4-c4cc3ccc4O)[C@H](O)c3ccc(c(Cl)c3)Oc3cc2cc(c3O[C@@H]2O[C@H](CO)[C@@H](O)[C@H](O)[C@H]2O[C@H]2C[C@](C)(N)[C@H](O)[C@H](C)O2)Oc2ccc(cc2Cl)[C@H]1O` [vancomycin, reference compound], under “Bacillus subtilis, 16 h”, inhibition of growth (MIC) required 0.5 µg/mL (≈ 0.345 µM). The compound tunicamycin [reference compound] yielded an MIC (B. subtilis CPZEN-45-resistant strain (tagO T728G), microbroth dilution, LB medium, 37° C., 16 hours) of 1 µg/mL.
